Experimental findings from ChEMBL document CHEMBL5308541, “MAIP: An Open-Source Tool to Enrich High-Throughput Screening Output and Identify Novel, Druglike Molecules with Antimalarial Activity” (ACS Med Chem Lett, 2023) are described below.

SMILES strings stand for the structures. Screen size: about 150,000 compounds; about 540 (0.36%) showed an effect of 50% or more. This is one part of the list.

For this experiment, the system named is Plasmodium falciparum. Put plainly: Primary screen in NF54 nanoGlo assay, in single point, at 2uM, 72h; a lower Z score goes with more inhibition. In kind it is functional, Erythrocyte. As to conditions: timepoint 72 hour.
As for `CN(Cc1cc(-c2ccncc2)no1)c1ncnc2[nH]ccc12`, the “% Inhibition” value is on record as -13% and the Z score amounted to 2.74.
As for `CCNc1ccnc(N[C@@H](C)c2nc3ccccc3[nH]2)n1`, the “% Inhibition” value was -10% and the Z score came out at 1.76.
For `COCCOCCCCNc1cnc2cc(F)c(F)cc2n1`, in that order: -10% and 1.96.
For `N#CC[C@@H](O)CN1CCCC(CN2CCN(c3ccccn3)CC2)C1` (some centres not stated), the “% Inhibition” value is -9% and the Z score was 1.53.
With `CC(C)(C)c1cc(C(=O)N2C[C@H]3CCC[C@@]3(c3nc(Cc4ccccc4)no3)C2)[nH]n1`, the “% Inhibition” value was -9% and the Z score stood at 1.62.
The like results for `Cc1ncc(CN(C)C(=O)[C@@H](NC(N)=O)C(C)(C)C)s1` were, in that order, -4% and 0.63.
With `CN(C)CCN(Cc1cccc2cnccc12)C[C@H]1CCCN(Cc2ccccc2F)C1`, the “% Inhibition” value is listed as -4% and the Z score is recorded as 0.72.
The like results for `CCn1c(-c2cnccn2)nnc1N1CCO[C@H](C(C)C)C1` were, in that order, 8% and -1.77.
For `O[C@@]1(CN2CCN(CCc3ccccc3)CC2)CCCNCC1`, in that order: 11% and -2.24.
For `OC1CCN(c2ccnc(NC[C@@H](c3ccccc3)N3CCCCCC3)n2)CC1`, in that order: 5% and -0.92.
On to `c1cc(N2CCN(c3nccc(N[C@H]4CCCOC4)n3)CC2)c2cc[nH]c2c1`, for which the “% Inhibition” value came to 6% and the Z score is -0.99.
Consider `c1cc2c(cc1CCN1CCCN(CC3CCCCC3)CC1)OCCO2`, for which the “% Inhibition” value is on record as -5% and the Z score was found to be 1.06.
As for `CC[C@H]1CN(C(=O)CN(C)C)CC(=O)N[C@H](C)C(=O)N[C@@H](CC(C)C)C(=O)N[C@@H](Cc2ccccc2)C(=O)N1`, the “% Inhibition” value was -6% and the Z score is given as 1.4.
With `CO[C@H]1C[C@@H](CN2CCCC2)N(c2ncnc3[nH]ccc23)C1`, the “% Inhibition” value is listed as 4% and the Z score is -0.78.
For `Cc1cc(N[C@H]2CCOC2)c2ccc(C(F)(F)F)cc2n1`, in that order: -3% and 0.66.
For the compound `CCc1cc(NCc2cccc(CN3CCCC3)c2)ncn1`, the “% Inhibition” value was found to be 0% and the Z score is recorded as 0.03.
As to `Nc1cc(-c2cc(F)cc3sc(N)nc23)c2cc[nH]c2n1`, the “% Inhibition” value was -4% and the Z score turned out to be 0.87.
With `Oc1cccc2c1CCC[C@@H]2NCc1ccc2occc2c1`, the “% Inhibition” value was found to be 32% and the Z score is reported as -5.46.
Consider `CN1CCCN(CCCNC(=O)c2ccnc(-n3cccn3)c2)CC1`, for which the “% Inhibition” value is -6% and the Z score was determined as 0.92.
For `COc1ccc(CCN2CCC(CNS(=O)(=O)c3cc(-c4cc(C)no4)ccc3OC)CC2)cc1`, in that order: -5% and 0.8.
In the case of `CCN1CCOC(CNS(=O)(=O)Cc2cc(C)no2)C1c1ccccc1` (configuration not stated), the “% Inhibition” value is -2% and the Z score is recorded as 0.37.
For `NC(=O)CN1CCC[C@H](C(=O)N(CCc2c[nH]c3ccccc23)Cc2cccnc2)C1`, in that order: 0% and 0.01.
The like results for `c1ccc(CN2CCN(CCN3CCC[C@@]4(CCNC4)C3)CC2)cc1` were, in that order, 6% and -1.39.
On to `Nc1nccnc1C(=O)Nc1ccccc1N1CCC(O)CC1`, for which the “% Inhibition” value is recorded as -18% and the Z score is reported as 3.16.
For `c1cc(CNC2CCN(C[C@H]3CCOC3)CC2)c2cc[nH]c2c1`, in that order: 34% and -5.22.
The like results for `Cc1nn(C(=O)c2c[nH]c3ccccc23)c(N)c1-c1ccccc1` were, in that order, -4% and 0.69.
For `CC(C)(C)NC(=O)N1CCC(CNc2ncnc3ccc(Cl)cc23)CC1`, in that order: 0% and 0.05.
For the compound `Cc1ccc2cc(CNC(C)C3CN(C)CCN3C)ccc2n1` (configuration not stated), the “% Inhibition” value amounted to 2% and the Z score is -0.3.
For `CC1CN(c2ccc(CNC(=O)c3cc(-c4ccco4)[nH]n3)cn2)CC(C)O1` (configuration not stated), the “% Inhibition” value is listed as -3% and the Z score stood at 0.52.
As to `Cn1c(CNC2CC(C)(C)NC(C)(C)C2)nc2cc(C(F)(F)F)ccc21`, the “% Inhibition” value is recorded as -6% and the Z score is on record as 0.95.
For the compound `c1ccc(CN2CC3CCCCC(NCc4ccnc(OC5CCOC5)c4)C3C2)cc1` (configuration not stated), the “% Inhibition” value is -7% and the Z score worked out at 1.2.
The like results for `O=C(NCCc1ccccc1)[C@H]1CCCN(C2CCN(c3ncnc4[nH]ccc34)CC2)C1` were, in that order, -3% and 0.58.
For `CN1CCCN(C[C@H]2CCCN2Cc2ccccc2)CC12CCNCC2`, the “% Inhibition” value is 12% and the Z score is on record as -1.77.
For `COc1ccc2oc([C@H](C)NC(=O)c3cnc4[nH]c(=O)[nH]c4c3)c(C)c2c1`, in that order: 3% and -0.39.
With `NC(=O)c1ccccc1OCC#CCNC(=O)C(=O)c1c[nH]c2ccccc12`, the “% Inhibition” value is reported as -14% and the Z score turned out to be 2.43.
For `CN(C[C@H]1COCCO1)C(=O)CCCC(=O)c1ccccc1`, in that order: -4% and 0.88.
In the case of `CC1(C(=O)NCC(c2ccccc2)c2c[nH]c3ccccc23)Cc2ccccc2C(=O)O1` (configuration not stated), the “% Inhibition” value is on record as -2% and the Z score is 0.26.
The like results for `Nc1nc(NCCc2nccc(-c3ccccc3)n2)cc(C2CC(N)C2)n1` (configuration not stated) were, in that order, 3% and -0.6.
The like results for `Cc1ccccc1[C@@H]1c2[nH]c3ccccc3c2CCN1C(=O)c1ccc2c(c1)C(=O)N(C)C2=O` were, in that order, -5% and 0.79.
For `Clc1cc(Cl)c2nc(Cc3nc(-c4c[nH]c5ncccc45)cs3)cn2c1`, in that order: -3% and 0.52.
For `CC1CN(c2ccc(NC(=O)c3cc4cc(F)ccc4[nH]3)cn2)CC(C)O1` (configuration not stated), the “% Inhibition” value stood at 4% and the Z score is recorded as -0.67.
Take `OC[C@H](CN1CCCCC1)Nc1cc(C(F)(F)F)nc(-c2ccncc2)n1`: the “% Inhibition” value is on record as 5% and the Z score was -0.76.
On to `CCn1ccnc(N(C)CC(C)(C)O)c1=O`, for which the “% Inhibition” value was -8% and the Z score is 1.68.
On to `CCOc1cc(C(=O)N(CC)c2ccc3[nH]ccc3c2)ccc1OCc1ccncc1`, for which the “% Inhibition” value amounted to 3% and the Z score is reported as -0.67.
The like results for `COc1ccc2[nH]nc(CN3CCC(C4CCN(C)CC4)CC3)c2c1` were, in that order, 6% and -0.99.
For `C[C@H](Nc1ncnc2c(F)cccc12)c1cccc(-n2ccnc2)c1`, in that order: 3% and -0.63.
Consider `c1cc2sccc2c(N2CCN(Cc3ccc4cn[nH]c4c3)CC2)n1`, for which the “% Inhibition” value is recorded as -10% and the Z score amounted to 1.49.
On to `CCN1CCN(Cc2cc(C)cc(CNCc3csc(-c4cnccn4)n3)c2C)CC1`, for which the “% Inhibition” value came to 4% and the Z score is recorded as -0.74.
For `Nc1ncc(-c2ccc(C(=O)NC[C@H]3CC[C@H](CO)CC3)cc2)cc1Cl`, in that order: -6% and 1.02.
The like results for `CN1CCC2(CC1)CN(c1nccc(N3CCC[C@H](O)C3)n1)CCN2C` were, in that order, 14% and -2.72.
For `Cc1nn(C)cc1-c1ccnc(NC2CCN(Cc3cccnc3)CC2)n1`, in that order: -3% and 0.56.
Take `CC(C)c1nc(NCc2ccnc(N3CCOCC3)c2)c2cc[nH]c2n1`: the “% Inhibition” value is 6% and the Z score was -1.09.
In the case of `CC1(C)CC(NCCC2(O)CCCC2)CC(C)(C)N1`, the “% Inhibition” value was -11% and the Z score is 1.85.
The like results for `CC1CC(C)CC(CCN2CCN(CCN3CCCOCC3)CC2)C1` (configuration not stated) were, in that order, 7% and -1.05.
For `COCCN1CCC(Nc2cc(N3CCC(C)(O)CC3)ncn2)CC1`, the “% Inhibition” value is 3% and the Z score is given as -0.58.
The like results for `OCC1CC(CN2CCOCC2)CN(Cc2ccc(-c3ccccc3)cc2)C1` (configuration not stated) were, in that order, -2% and 0.32.
For `CCN(Cc1ccc2[nH]ccc2c1)Cc1ccnn1CC`, in that order: 7% and -1.3.
The like results for `O=C(NC1CCN(CCOc2ccc(Cl)cc2)CC1)c1c[nH]c2ccncc2c1=O` were, in that order, 94% and -14.22.
Regarding `COC[C@H](C)Nc1ccccc1NC(=O)c1ncn2ccc(C)cc12`, the “% Inhibition” value is recorded as -1% and the Z score is reported as 0.21.
For the compound `O=C1C[C@H](CNc2ncnc3[nH]ccc23)CN1C1CCCC1`, the “% Inhibition” value is listed as 5% and the Z score is on record as -0.82.
As to `CN(Cc1ccon1)Cc1ccc(C#CC(C)(C)O)s1`, the “% Inhibition” value is reported as -3% and the Z score came out at 0.49.
With `C[C@H](NC1CCC2(CCNCC2)CC1)c1nc(-c2ccccn2)no1`, the “% Inhibition” value was -9% and the Z score is recorded as 1.56.
On to `c1ccc(-c2nccn2CCCNc2ncnc3cnccc23)cc1`, for which the “% Inhibition” value is reported as -6% and the Z score was 0.9.
For `COCCN1CC[C@H](CNc2nc(C)nc3c2CCNCC3)C1`, in that order: -3% and 0.48.
The like results for `NS(=O)(=O)c1ccc(C(=O)N2CCN(c3cc(Nc4ccccn4)ncn3)CC2)cc1` were, in that order, -9% and 1.61.
As for `Cc1cc2nc(C(C)C)cc(NC3COCC3N3CCOCC3)n2n1` (configuration not stated), the “% Inhibition” value is listed as -4% and the Z score was 0.83.
Turning to `COc1ccccc1CN(Cc1ccc2[nH]ccc2c1)C1CC1`, the “% Inhibition” value was -1% and the Z score was 0.26.
For `Cn1nc(CN2CCCCNC(=O)[C@@H]3C[C@@H](CN3)N(C(=O)c3ccccc3)CCC2)c2c(Cl)cccc21`, in that order: -10% and 2.1.
The like results for `O=C(NCCc1ccns1)c1ccc(OC(F)F)cn1` were, in that order, -3% and 0.61.
With `COc1ccc(N2CCC(N3CCC(CCC(=O)NCCN(C)C)CC3)CC2)cc1`, the “% Inhibition” value is on record as -3% and the Z score was 0.55.
`O=C(N1CCN(c2nccc(-c3ccc(-n4ccnc4)cc3)n2)CC1)C(F)(F)C(F)(F)C(F)(F)F`: the “% Inhibition” value is given as 11% and the Z score is reported as -1.94.
Take `FC(F)(F)CCCN(Cc1cccnc1)CC1CCN(C2CCCC2)CC1`: the “% Inhibition” value is on record as -8% and the Z score was found to be 1.32.
For `Cc1ccc(-c2cccc(C(=O)N3CCN(CCN4CCCC4)CC3)c2)o1`, in that order: 8% and -1.62.
As to `CCOC(=O)C(=O)N1CCN(C(=O)c2ccc3ncnn3c2)CC1`, the “% Inhibition” value turned out to be 0% and the Z score is -0.01.
`OCCN1CCN(C2CCN(c3ccccc3)CC2)C[C@@H](O)C1`: the “% Inhibition” value was -4% and the Z score is listed as 0.68.
For `CC(=O)N1CCN(Cc2cccc(-c3cnn4cc(Cl)ccc34)c2)CC1`, in that order: -4% and 0.58.
The like results for `Cc1nonc1CNS(=O)(=O)c1ccc(-c2cc(C(F)(F)F)[nH]n2)o1` were, in that order, -4% and 0.61.
The like results for `O=c1cc(N2CCN(C3CCN(Cc4ccco4)CC3)CC2)c(-c2ccccc2)n[nH]1` were, in that order, 2% and -0.48.
With `CN(C)C(=O)c1ccc(N2CCC(NCCN3CCC[C@H](c4ccccc4)C3)CC2)cc1`, the “% Inhibition” value is -4% and the Z score was 0.7.
For `CC(C)N1CCN(c2ccc(-c3ccc4[nH]nc(N)c4c3)cc2)CC1`, in that order: -9% and 1.66.
For `Fc1cc(-c2noc([C@@H](c3ccccc3)C3CC3)n2)ccc1OC1CCNCC1`, in that order: -5% and 1.02.

As usually defined, the % Inhibition is the relative decrease from the control value, in per cent.
